Source: PubChem BioAssay AID1963839 (Molecular Pharmacology Branch, DTP, NCI, 2024)
Some entries of the source have several records that differ or are many. They are shown here; other results are not. There may be further records. The values listed for one entry are repeated measurements (runs, samples, wells, individuals or studies). Brackets with × give the number of equal values in this list. Dates in brackets are months of testing.

Test system: 817829-284-R-J1-PDC complex spheroid viability
Test: Anticancer human tumor 817829-284-R-J1-PDC patient-derived colon adenocarcinoma cell line growth inhibition [POLQ]
Conditions: for IC50: compound alone; for viability, T/C: stronger effect = lower value
Method: Multicellular complex tumor spheroid response to Polymerase (POL) inhibitors (novobiocin, ART-558, RP6685) in combination with a variety of drugs and investigational agents in selected tumor cell lines
The POL inhibitors (novobiocin, ART-558, and RP6685) were evaluated both individually and in combination with standard of care and investigational anticancer small molecules within a complex spheroid model of solid tumors. . Complex spheroids include a stromal component modeled by human endothelial cells (HUVEC) and fibroblasts modeled by human mesenchymal stem cells (MSCs). The concentration ranges selected for each drug and investigational agent were based upon clinically achievable concentrations if the clinical Cmax of the agent was known.
Compounds. The drugs and investigational agents: novobiocin (NSC847541), ART-558 (NSC835418), RP-6685 (NSC848927), peposertib (NSC802822), ceralasertib (NSC780249), elimusertib (NSC800525), camonsertib (NSC841442), AZD-1390 (NSC803789), olaparib (NSC753686), talazoparib (NSC767125), rucaparib (NSC756644), sotorasib (NSC818433), MRTX-1133 (NSC836407), SN-38 (NSC673596), topotecan (NSC609699), epotoside (NSC141540), doxorubicin (NSC123127), gemcitabine (NSC613327), 5-fluorouracil (NSC19893), paclitaxel (NSC125973), vemurafenib (NSC761431), MSA-2 (NSC828583), SN-011 (NSC837082), adavosertib (NSC754352), prexasertib (NSC758257), carboplatin (NSC241240) and oxaliplatin (NSC266046), were obtained from the National Cancer Institute (NCI) Developmental Therapeutics Program Chemical Repository (21). The FDA-approved anticancer drug set is available from the Developmental Therapeutics Program at https://dtp.cancer.gov/organization/dscb/obtaining/. […] The stock solutions were prepared in dimethyl sulfoxide (DMSO, Sigma-Aldrich, St. Louis, MO, cat. D2650), except for the platinum compounds which were prepared in saline (Quality Biological, Gaithersburg, MD, cat. 114-055-101), at 800-fold the tested concentration and stored at -70 degrees C prior to their use. All drugs and investigational agents were tested over a range starting from a high concentration at or near the clinical Cmax and decreasing in half-log increments. If the clinical Cmax for an agent had not been determined, the highest concentration tested was 10 microM, except for SN-38, which was tested at a high concentration of 1 microM.
Cell Culture. All cells were maintained in an incubator at 37 degrees C and 5% CO2 with 95% humidity. The PDC lines were cultured according to standard operating procedures established by the NCI PDMR (https://pdmr.cancer.gov). Table 3 of the manuscript, lists the cell lines along with the number of the three cell types plated to form the mct-spheroids and media for tumor cell growth. After thawing, all PDC lines, except 997537-175-T-J1-PDC and 415267-285-R-J2-PDC, were cultured in Matrigel-coated flasks prepared with a working solution of 1X Ham's F-12 nutrient mix, without supplementation (Thermo Fisher Scientific, cat. 11765054), 100 U/mL penicillin-streptomycin (Thermo Fisher Scientific, cat. 15140122), and 2.5% Matrigel (Corning Inc., Corning, NY, cat. 354248) for the first three passages. The two PDC lines 997537-175-T-J1-PDC and 415267-285-R-J2-PDC were cultured on uncoated flasks. The 857933-349-R-J2-PDC line was cultured in 6C/Colon 1B media containing advanced DMEM/F-12 (Thermo Fisher Scientific, cat. 12634028), 10 mM HEPES (Thermo Fisher Scientific, cat. 15630080), 1X GlutaMAX supplement (Thermo Fisher Scientific, cat. 35050061), 0.1 mg/mL primocin (InvivoGen, San Diego, CA, cat. ant-pm-2), 10% defined fetal bovine serum, heat inactivated (HyClone Laboratories Inc., Logan, UT, cat. SH30070.03HI), 50% L-WRN conditioned media (ATCC, cat. CRL-3276), 1.25 mM N-Acetyl-L-cysteine (Sigma-Aldrich, cat. A9165), 10 mM nicotinamide (Sigma-Aldrich, cat. N0636), 1X B-27 supplement (Thermo Fisher Scientific, cat. 17504044), 1X N-2 supplement (Thermo Fisher Scientific, cat. […]
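Note: spheroids exposed to compounds for 7 days.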
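Throughout, for viability, T/C: 100% = DMSO vehicle-treated spheroids.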

SMILES | IC50 | viability, T/C (compound alone 0.0316 µM) | viability, T/C (compound alone 0.1 µM) | viability, T/C (compound alone 0.316 µM) | viability, T/C (compound alone 1 µM) | viability, T/C (compound alone 3.16 µM) | viability, T/C (compound alone 10 µM)
CC(C)n1c(=O)n(C)c2cnc3cc(F)c(-c4ccc(OCCCN5CCCCC5)nc4)cc3c21 | < 31.6 nM, 7.27 µM [2023-11] and > 10 µM [2023-12] | 5.85%, 71.3% [2023-11] and 81.2% [2023-12] | 6.01%, 71.6% [2023-11] and 87.1% [2023-12] | 6.12%, 71.9% [2023-11] and 91.1% [2023-12] | 6.82%, 90.8% [2023-11] and 73.3% [2023-12] | 6.55%, 76.8% [2023-11] and 88.2% [2023-12] | 9.02%, 40% [2023-11] and 65.6% [2023-12]
COC1C(OC(N)=O)C(O)C(Oc2ccc3c(O)c(NC(=O)c4ccc(O)c(CC=C(C)C)c4)c(=O)oc3c2C)OC1(C)C (stereo not drawn) |  | 82, 106, 81.6, 112, 118, 102, 94.2, 108, 88.9, 88.5, 116, 107, 86.5% | 82.1, 83.3, 88, 115, 117 (2×), 102, 76.1, 97.8, 106, 103, 99.2, 79.6% | 88.7, 99.7, 109, 114, 94.6, 120, 102, 132, 101, 81.5, 87.7, 83, 104% | 93.2 (2×), 68.1, 86.8, 109 (2×), 96, 97.7, 114, 113, 78.1, 83.8, 95.9% | 113, 77.7, 61.7, 78.6, 79.7, 101, 94.8, 104, 103, 112, 111, 95.8, 72.4% | 113 (2×), 114, 134, 105 (2×), 95.6, 96.6, 115, 103, 87.7, 95, 95.5%
Nc1ccc(C#CCN(C(=O)Cc2ncc(C(F)(F)F)cc2C(F)(F)F)c2ccc(F)cc2)nn1 |  | 102, 92.3, 118, 101 (2×), 96.3, 110, 113, 87.9, 88.4, 93.5, 109, 96.8% | 107, 104 (2×), 112, 93.3, 94.1, 109, 96.1, 120, 99.8, 101, 108, 96.7% | 93.9, 91.8, 105 (2×), 92.3, 93.6, 98.3, 107, 94.2, 108, 119, 109, 99% | 104 (2×), 97.5, 112, 87.7, 83.7, 103, 102, 107, 96.1, 100, 106, 89% |  | 
O=C(c1cc(Cc2n[nH]c(=O)c3ccccc23)ccc1F)N1CCN(C(=O)C2CC2)CC1 | < 31.6 nM, 2.27 µM [2023-11] and 5.26 µM [2023-12] | 6.95%, 109% [2023-11] and 99% [2023-12] | 5.24%, 99.7% [2023-11] and 89.7% [2023-12] | 6.64%, 73.1% [2023-11] and 91.8% [2023-12] | 5.74%, 77.2% [2023-11] and 83.6% [2023-12] | 6.52%, 36.8% [2023-11] and 63.2% [2023-12] | 
Cc1cccc(N(C)C(=O)C2C(O)CCN2c2nc(C)cc(C(F)(F)F)c2C#N)c1 (stereo not drawn) |  | 92.5, 110, 77.6, 96.9, 87.6, 115, 118, 121% [2023-11] and 103, 91, 101, 112, 91.3% [2023-12] | 80, 122, 116, 107, 82.3, 137, 111% (2×) [2023-11] and 106, 111, 113, 120, 92.2% [2023-12] | 97.8, 108, 120, 76.3, 89.3, 122, 112, 105% [2023-11] and 106, 105 (2×), 84, 108% [2023-12] | 95.2 (2×), 102, 90.1, 62.3, 95.6, 103, 122% [2023-11] and 114, 99.8, 103, 107, 101% [2023-12] | 111, 103, 98.3, 92, 88.9, 100, 126, 80% [2023-11] and 102, 103, 98.6, 104, 92.4% [2023-12] | 
